# Data reported in patent US20230003721A1, “MITOTHERAPEUTICS FOR THE TREATMENT OF BRAIN DISORDERS” (The University of Florida Research Foundation, Inc., priority 2019, published 2023).
# Tested on: primary neurons
# Details: 10 μM Aβ(1-42), 12.5 μM compound, 48 h co-treatment
row,SMILES,protection from Aβ(1-42) induced mitochondrial fragmentation
1,"O=C(/C=C/c1ccccc1)c1ccc(O)cc1O [2′,4′-DIHYDROXYCHALCONE]",complete protection
2,O=C(/C=C/c1ccccc1)c1ccc(O)cc1 [4′-HYDROXYCHALCONE],complete protection
3,COc1cc(O)c2c(=O)c(O)c(-c3ccc(O)c(O)c3)oc2c1 [RHAMNETIN],complete protection
